# Reference: the supplement of paper PMC11417369
# ± gives the standard deviation of the averaged measurements. The list shows a part of the results.
# System: PfAP2-G AP2 domain (GST-tagged)
# Test: gcPBM binding intensity (ln(normalized median fluorescence intensity)); higher = stronger DNA binding
# How it was run: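 Probes on an Agilent 4 × 180k array were primer-extended, double-stranded and 36 bp long, taken from intergenic genomic regions, with negative controls added. GST-tagged P. falciparum DNA-binding domains from E. coli, about 25 μg on average, were applied to the array for 1 h in 1× PBS containing 1% milk, 0.2 mg/ml BSA, 0.5% salmon testes DNA and 0.03% Triton X-100. Binding intensity, obtained after Alexa488 anti-GST antibody detection and a 488 nm scan, is the highest Masliner-normalised natural-log median intensity across replicate spots of either probe orientation.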
row,Sequence,gcPBM binding intensity (ln)
1,TTAAAAAATATATACGTTGATATAATACAACTTGAC [CACACA_negctrl_site1551],10.1 ± 0.14
2,ATGTGTATATGTTAATGTACAAATTTTGAAAATGCC [XGTACX_site2685],10.9 ± 0.52
3,TGTATAACCATAAATTGTACAGAAAAAAGTATAAAA [XGTACX_site1493],10.9 ± 0.47
4,ATTTATTTATCAAATATTATCTTAAAAAAAAAAGAA [CACACA_negctrl_site1345],9.625 ± 0.078
5,TTTCAACTTTTGTCATGTACACATAATTTTATTGCA [XGTACX_site6701],11.3 ± 0.8
6,TACCAAAAAAAAAAAAATAAAAATAAAAAAAAAAAT [CACACA_negctrl_site1714],9.47 ± 0.028
7,AAAATAAAAATAAAAGCACACATAAATATATATATA [CACACA_site8409],9.87 ± 0.23
8,TAAAAGTTTTTATACATACACACCTATAAATTAAGT [CACACA_site2446],10.14 ± 0.035
9,CTTTATTATAAGATTACACACATGTCTTATAATTTA [CACACA_site5715],9.85 ± 0.057
10,TAACTATTATAAAAATGTACAAATGAAAATATTTTT [XGTACX_site1438],10.8 ± 0.38
11,TAATTAAATACATTAACACACACACTAATATATACA [CACACA_site8938],10.1 ± 0.16
12,TTCCTGTTAATTACAACACACAATTTTTATTTTATG [CACACA_site779],10.15 ± 0.014
13,AATTTTTTTTTTTTGTGTCCTCATAATTCTTCATTC [XGTACX_site5042],11.4 ± 0.82
14,TAAAAAAAAATATAATGTACGTATAAATATATATTA [XGTACX_site5085],11.3 ± 0.75
15,TAAACATAATAATATACACACATATATTGATATATA [CACACA_site2144],9.675 ± 0.035
16,AAGGCATGACTATCTGCACACATAAAAATAAGAAAT [CACACA_site8180],10 ± 0.13
17,TATATTATAGGTTGTGTACACATATTATATAGTACT [CACACA_site4583],11.6 ± 0.88
18,ATATATTTATAGACTTGTACATATATATACGATATA [XGTACX_site8890],10.9 ± 0.61
19,ATTTTTTTGGTAATTTGTACATAATATATACATAAT [XGTACX_site3742],11 ± 0.54
20,AAAATTAAAACCTACACACACATTTAAAAAAAAAAA [CACACA_site3068],10.1 ± 0.25
21,TATATTTATTTAAAAACATGCATTTTTTTTTTCCGT [TGCATGCA_site44],9.8 ± 0.042
22,TTTTTTTTTTTTACATGTACTTATTTTAAATATAAA [XGTACX_site805],11.4 ± 0.91
23,ATTCTTAAAATAAAATGTACGAAAAAAAAAAAAAAA [XGTACX_site1657],10.7 ± 0.81
24,AAAATATGTTAATATTGTACTTAAATAAAAAAAATA [XGTACX_site7152],11.2 ± 0.62
